Assay results reported in publication PMC4780765.
Results are given in words; binding and its absence hold for the method and conditions named. For part of these data: In cells and extracts the contact can be indirect. Some results given as binding are weak or reduced against the parent protein; the word gives no strength.

Sequences of proteins named here, by UniProt entry; tags and fusion partners are left off. A change or cut given only in a name is not applied to a line headed by its entry.
UniProt P22392: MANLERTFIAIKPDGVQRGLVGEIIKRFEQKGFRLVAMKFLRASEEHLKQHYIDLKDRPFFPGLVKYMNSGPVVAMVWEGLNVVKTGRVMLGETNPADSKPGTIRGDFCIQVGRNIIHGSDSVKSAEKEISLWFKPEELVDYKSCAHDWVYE
UniProt P54646: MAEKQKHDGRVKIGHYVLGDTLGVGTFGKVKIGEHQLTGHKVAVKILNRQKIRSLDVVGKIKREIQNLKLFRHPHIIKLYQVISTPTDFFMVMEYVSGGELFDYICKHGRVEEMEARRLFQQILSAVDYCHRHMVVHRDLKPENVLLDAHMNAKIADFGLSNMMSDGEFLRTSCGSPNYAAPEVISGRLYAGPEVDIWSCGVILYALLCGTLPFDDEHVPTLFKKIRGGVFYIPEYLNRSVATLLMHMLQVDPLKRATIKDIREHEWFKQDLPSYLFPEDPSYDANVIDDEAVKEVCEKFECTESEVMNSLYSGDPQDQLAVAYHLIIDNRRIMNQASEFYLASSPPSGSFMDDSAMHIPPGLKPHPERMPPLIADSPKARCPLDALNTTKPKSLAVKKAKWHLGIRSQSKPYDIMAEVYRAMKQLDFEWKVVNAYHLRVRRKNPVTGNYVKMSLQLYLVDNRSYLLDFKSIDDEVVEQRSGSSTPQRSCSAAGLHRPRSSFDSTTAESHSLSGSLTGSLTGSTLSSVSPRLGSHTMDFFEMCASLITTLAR
UniProt Q13131: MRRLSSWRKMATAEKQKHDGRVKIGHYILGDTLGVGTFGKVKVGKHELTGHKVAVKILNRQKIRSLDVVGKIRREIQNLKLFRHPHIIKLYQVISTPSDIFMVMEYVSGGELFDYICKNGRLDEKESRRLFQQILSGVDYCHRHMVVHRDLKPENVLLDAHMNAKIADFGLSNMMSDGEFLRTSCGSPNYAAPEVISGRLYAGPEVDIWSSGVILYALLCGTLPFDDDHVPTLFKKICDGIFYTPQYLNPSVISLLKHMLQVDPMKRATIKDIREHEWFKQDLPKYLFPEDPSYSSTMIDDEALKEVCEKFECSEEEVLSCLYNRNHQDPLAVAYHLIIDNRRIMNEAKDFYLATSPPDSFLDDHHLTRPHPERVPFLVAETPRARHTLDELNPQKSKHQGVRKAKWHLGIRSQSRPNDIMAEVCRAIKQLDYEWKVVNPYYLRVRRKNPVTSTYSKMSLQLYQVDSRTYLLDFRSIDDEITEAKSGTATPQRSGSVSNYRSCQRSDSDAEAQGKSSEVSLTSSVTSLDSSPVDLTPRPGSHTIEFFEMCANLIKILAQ
UniProt P13569: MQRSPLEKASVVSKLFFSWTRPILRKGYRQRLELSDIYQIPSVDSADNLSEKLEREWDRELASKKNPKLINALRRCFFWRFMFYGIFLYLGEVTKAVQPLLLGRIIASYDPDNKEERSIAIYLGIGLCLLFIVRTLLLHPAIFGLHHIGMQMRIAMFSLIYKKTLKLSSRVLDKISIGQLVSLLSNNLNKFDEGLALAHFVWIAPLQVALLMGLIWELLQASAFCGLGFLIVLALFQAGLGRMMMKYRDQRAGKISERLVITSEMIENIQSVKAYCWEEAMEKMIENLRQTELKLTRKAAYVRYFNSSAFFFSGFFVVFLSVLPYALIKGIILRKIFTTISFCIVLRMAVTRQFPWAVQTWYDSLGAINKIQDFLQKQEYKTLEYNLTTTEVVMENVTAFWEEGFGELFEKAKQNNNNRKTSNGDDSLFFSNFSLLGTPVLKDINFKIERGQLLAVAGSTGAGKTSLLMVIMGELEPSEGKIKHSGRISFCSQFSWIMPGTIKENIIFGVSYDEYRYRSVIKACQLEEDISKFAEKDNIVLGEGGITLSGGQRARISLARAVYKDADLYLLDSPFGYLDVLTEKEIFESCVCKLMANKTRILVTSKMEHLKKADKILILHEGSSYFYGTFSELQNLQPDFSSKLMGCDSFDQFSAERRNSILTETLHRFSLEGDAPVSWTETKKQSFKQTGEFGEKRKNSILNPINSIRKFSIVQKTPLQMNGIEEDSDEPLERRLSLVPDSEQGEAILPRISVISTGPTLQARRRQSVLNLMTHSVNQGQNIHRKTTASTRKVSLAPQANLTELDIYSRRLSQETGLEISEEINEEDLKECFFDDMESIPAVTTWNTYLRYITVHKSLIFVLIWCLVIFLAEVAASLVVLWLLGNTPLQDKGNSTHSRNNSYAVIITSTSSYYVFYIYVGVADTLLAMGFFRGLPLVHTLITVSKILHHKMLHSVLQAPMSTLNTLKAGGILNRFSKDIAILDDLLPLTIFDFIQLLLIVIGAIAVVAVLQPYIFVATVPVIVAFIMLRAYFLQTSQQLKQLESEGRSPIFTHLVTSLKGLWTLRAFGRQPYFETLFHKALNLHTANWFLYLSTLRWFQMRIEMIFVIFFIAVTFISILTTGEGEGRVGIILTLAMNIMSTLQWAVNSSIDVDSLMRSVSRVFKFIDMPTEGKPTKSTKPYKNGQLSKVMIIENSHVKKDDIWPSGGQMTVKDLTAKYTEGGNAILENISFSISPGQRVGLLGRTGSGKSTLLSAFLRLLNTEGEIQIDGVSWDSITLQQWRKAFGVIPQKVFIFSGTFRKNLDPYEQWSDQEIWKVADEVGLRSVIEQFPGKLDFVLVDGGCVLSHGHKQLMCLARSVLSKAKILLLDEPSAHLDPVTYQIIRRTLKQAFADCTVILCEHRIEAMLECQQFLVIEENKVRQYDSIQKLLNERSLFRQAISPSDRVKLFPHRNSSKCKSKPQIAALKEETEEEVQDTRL
UniProt P15531: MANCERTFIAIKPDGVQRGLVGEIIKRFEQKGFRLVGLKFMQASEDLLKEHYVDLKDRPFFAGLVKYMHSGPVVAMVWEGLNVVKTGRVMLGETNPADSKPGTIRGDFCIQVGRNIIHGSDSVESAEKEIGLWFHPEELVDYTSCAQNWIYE

Key:
[1] = molecular target: human recombinant nucleoside diphosphate kinase B isoform (human) (UniProt P22392); assay: SPR; competition: 1 μg untagged NBD1 injected alone or together with peptide (10, 50 or 100 ng) over immobilised NDPK-B on CM5, HBS-EP, 25°C; response read 20 s into the dissociation phase; both purified
[2] = molecular target: AMPKα2 (human (endogenous in 16HBE14o-)) (UniProt P54646); assay: co-IP; AMPKα1, AMPKα2 (legend: also pan AMPKα) immunoprecipitates from membrane and cytosol of 16HBE14o- cells, immunoblot for NDPK-A or NDPK-B; beads washed in RIPA with 1 M NaCl
[3] = molecular target: AMPKα1 (human (endogenous in 16HBE14o-)) (UniProt Q13131); assay: as above
[4] = molecular target: cystic fibrosis transmembrane conductance regulator (human (endogenous in 16HBE14o-)) (UniProt P13569); assay: condition: only in the post-avidin supernatant (cell extract depleted of cell surface/integral membrane proteins by avidin precipitation); co-IP; CFTR or NDPK-B immunoprecipitates from the post-avidin supernatant of surface-biotinylated 16HBE14o- cells (lysate depleted of cell surface proteins), ± FSK/IBMX or PKI/FSK/IBMX
[5] = molecular target: cystic fibrosis transmembrane conductance regulator (human (endogenous in 16HBE14o-)) (UniProt P13569); assay: far-Western, overlay or dot blot; blot of SDS-PAGE-separated 16HBE14o- membrane proteins (100 μg) overlaid with 16HBE14o- cytosol proteins (0.5 mg) in TBS with 5% milk, 60 min at room temperature, without or with cAMP, 8-Br-cAMP or dioctanoyl-cAMP (100 μM); probed for NDPK-B
[6] = molecular target: cystic fibrosis transmembrane conductance regulator (human (endogenous in 16HBE14o-)) (UniProt P13569); assay: co-IP; CFTR or NDPK-B immunoprecipitates from 16HBE14o- membranes; cells untreated, treated with FSK (10 μM)/IBMX (100 μM) for 30 min, or with PKI (100 nM) or H-89 (1 μM) for 5 min before FSK/IBMX
[7] = molecular target: cystic fibrosis transmembrane conductance regulator (human (endogenous in 16HBE14o-)) (UniProt P13569); assay: co-IP; CFTR or NDPK-B immunoprecipitates on beads from lysates of FSK/IBMX-stimulated 16HBE14o- cells, incubated with buffer or peptide for 30 min at 30°C; beads and supernatant immunoblotted (the pair that is blocked)
[8] = molecular target: nucleoside diphosphate kinase B (human (endogenous in 16HBE14o-)) (UniProt P22392); assay: condition: only in the post-avidin supernatant (cell extract depleted of biotin-labelled cell surface proteins); co-IP; CFTR or NDPK-B immunoprecipitates from the post-avidin supernatant of surface-biotinylated 16HBE14o- cells (lysate depleted of cell surface proteins), ± FSK/IBMX or PKI/FSK/IBMX
[9] = molecular target: nucleoside diphosphate kinase B (human (endogenous in 16HBE14o-)) (UniProt P22392); assay: co-IP; CFTR or NDPK-B immunoprecipitates from 16HBE14o- membranes; cells untreated, treated with FSK (10 μM)/IBMX (100 μM) for 30 min, or with PKI (100 nM) or H-89 (1 μM) for 5 min before FSK/IBMX
[10] = molecular target: nucleoside diphosphate kinase B (human (endogenous in 16HBE14o-)) (UniProt P22392); assay: co-IP; CFTR or NDPK-B immunoprecipitates on beads from lysates of FSK/IBMX-stimulated 16HBE14o- cells, incubated with buffer or peptide for 30 min at 30°C; beads and supernatant immunoblotted (the pair that is blocked)
[11] = molecular target: cystic fibrosis transmembrane conductance regulator (human (endogenous in 16HBE14o-)) (UniProt P13569); assay: far-Western, overlay or dot blot; blot of a CFTR immunoprecipitate or of 16HBE14o- membrane proteins, 100 μg, overlaid with 1 μg recombinant NDPK-B without or with cAMP or 8-Br-cAMP (100 μM); probed for NDPK-B; only the binder purified
[12] = molecular target: untagged NBD1 (351–727) (human) (UniProt P13569); assay: far-Western, overlay or dot blot; Western blot of untagged NBD1 (900, 300 and 100 ng per lane) on PVDF overlaid with purified NDPK-B (50 μg), probed with NDPK-B specific antibodies; both purified
[13] = molecular target: cystic fibrosis transmembrane conductance regulator (human (endogenous in 16HBE14o-)) (UniProt P13569); assay: far-Western, overlay or dot blot; overlay assay with NDPK-A, without or with cAMP; not shown

With “untagged NBD1 (351–727) (from UniProt P13569 351-727) (domain or fragment)” the binding [1] was “binds”.

In the case of “nucleoside diphosphate kinase B (from UniProt P22392 1-152)”, the binding [2] is reported as “no binding”, the binding [3] is reported as “no binding” and the binding [4] is reported as “no binding”. The binding [5] was “binds”, the binding [6] was “binds” and the binding [7] was “binds”.

In the case of “cystic fibrosis transmembrane conductance regulator (from UniProt P13569 1-1480)”, the binding [8] is reported as “no binding”, the binding [9] is reported as “binds” and the binding [10] is reported as “binds”.

With “human recombinant nucleoside diphosphate kinase B isoform (from UniProt P22392 2-152)” the binding [11] was “binds” and the binding [12] was “binds”.

With “nucleoside diphosphate kinase A (from UniProt P15531 1-152)” the binding [3] was “binds”, the binding [6] was “binds” and the binding [13] was “binds”.
